Reference: PubChem BioAssay AID1963576 (National Center for Advancing Translational Sciences (NCATS), 2024)
In all, about 46,000 compounds went through this assay and about 60 (0.1%) were called active. Another 3% or so got no clear call; they are omitted. Calls follow the shape of the dose curve; as a rule, active = well fitted inhibition curve with a large enough effect; inconclusive = small, poorly fitted or top-dose-only effect; inactive = no such curve, though single readings can be large or run the other way. Some of the results follow.

Experiment: Primary qHTS assay for Inhibitors of ovarian cancer metastasis using an organotypic tumor microenvironment (TME) model. Also: nearly all actives have a fitted effect of over 65% in size.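 As to activity change, negative = inhibition: plate controls were DMSO wells for no effect and tomatine positive control wells for full effect.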
Details: SKOV3ip1-GFP adhesion/invasion on 3D omental model, fluorescence; series mostly up to 45.8 µM; activity change, negative = inhibition: at the top concentration
Outline: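 Primary human omental fibroblast/mesothelial 3D culture pre-formed 48 h. SKOV3ip1-GFP cells added with compounds (0.36-46 umol/L), incubated 2 h RT/16 h 37 C, fixed; GFP cells quantified at 488/509 nm.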

Activity change, negative = inhibition, inactive:
COc1ccc(-c2cc(C)no2)cc1S(=O)(=O)N1CCc2ccccc21 -6.98%
CCc1ccc(NC(=O)CN(c2ccc(C)cc2)S(=O)(=O)c2cccs2)cc1 4.35%
CCc1ccc(NC(=O)C(=O)NCC(c2cccnc2)N2CCN(c3ccc(F)cc3)CC2)cc1 (centres undefined) 8.7%
CC(=O)N1CCc2nc3sc(C(=O)c4ccc(F)cc4)c(N)c3c(C(F)(F)F)c2C1 -46.1%
Cc1ccc(NC(=O)c2nc(S(C)(=O)=O)ncc2N(Cc2ccco2)Cc2cccs2)c(C)c1 -20%
Cc1ccc(OCC(=O)Nc2nnc(S(=O)(=O)N3c4ccccc4CC3C)s2)cc1 (centres undefined) 9.45%
Cc1ccc(C(=O)Nc2ccc(S(=O)(=O)N3CCC(c4nc5ccccc5s4)CC3)cc2)cc1 -12.6%
Cc1ccc(NC(=O)CSc2nc(=O)n(CCN3CCOCC3)c3c2CCC3)c(C)c1 -3.53%
C[C@@H]1COC(Nc2ccc3ncnc(Nc4ccc(OCc5nccs5)c(Cl)c4)c3c2)=N1 -22.2%
Cc1ccc(OCCCCn2nnc3sc4c(c3c2=O)CCCC4)cc1 7.17%
CCOc1ccccc1Nc1sc(C(=O)c2ccccc2)c(N)c1C(=O)Nc1ccccc1 -6.89%
CC(=O)c1cc(-c2ccccc2)n(CCC(=O)NCc2ccc(C)cc2)c1C 31.3%
CCc1ccc(NC(=O)Cn2c(=O)n(CCCCC(=O)NCc3ccc4c(c3)OCO4)c(=O)c3ccccc32)cc1 -20.5%
COc1ccc(-c2noc(N(c3nc(-c4ccc(OC)c(OC)c4)no3)c3ccccc3OC)n2)cc1OC 6.46%
O=S(=O)(NCc1nc2cccnc2n1Cc1ccccc1)c1ccc2c(c1)CCCC2 -1.14%
N#C/C(=C/c1ccc(Cl)cc1)c1nc(-c2ccc(Br)cc2)cs1 -23.6%
CCCCc1nn2c(=O)cc(COC(=O)c3cccc(NC(=O)CCc4ccccc4)c3)nc2s1 -12.1%
CCc1ccc(-n2c(=O)c3c(C)c(C)sc3n(CC(=O)NCc3ccc(C)cc3)c2=O)cc1 -0.955%
COc1cc(/C=C(\C#N)c2nc3ccccc3[nH]2)cc(Cl)c1OCc1ccccc1Cl 16.3%
Cc1ccc(CSc2oc(-c3ccco3)nc2S(=O)(=O)c2ccc(C)cc2)cc1 2.38%
COc1cc2nc(SCC(=O)Nc3c(C)cc(C)cc3C)n3nc(CCn4c(C)nc5ccccc54)nc3c2cc1OC -4.92%
Cc1ccc(NS(=O)(=O)c2ccc3[nH]c(=O)oc3c2)c(C)c1 6.6%
CCCn1c2ccccc2c2cnn(CC(=O)N(C)c3ccccc3CC)c(=O)c21 -4.6%
CC(=O)NCC(c1ccc2c(c1)OCO2)N1CCN(c2ccccc2)CC1 (centres undefined) 14.2%
CCc1cccc(C)c1NC(=O)c1cc(S(=O)(=O)NCc2ccccc2Cl)ccc1F 2.23%
COc1ccccc1CNC(=O)CCn1c(=O)c2ccccc2n(CC(=O)Nc2ccc(C)cc2Cl)c1=O 31.4%
Fc1ccc(C(NCCc2ccc(Cl)cc2)c2nnc(-c3ccccc3)o2)c(Cl)c1 (centres undefined) 0.367%
Cc1c(NC(=O)Nc2ccc(Br)cc2F)sc2nc3n(c(=O)c12)CCC(C)CC3 (centres undefined) 4.39%
CN(C)CCCN(C(=O)c1ccc(Br)s1)c1nc2ccc(F)cc2s1 0.498%
Cc1ccc2cccc(NC(=O)COc3cc(C)c(Cl)c(C)c3)c2n1 -8.01%
COc1ccc(CCNC(=O)Cn2c(=O)nc(-c3ccccc3)c3ccccc32)cc1OC 7.01%
COc1ccc(N(CC(=O)NCc2ccccc2Cl)S(=O)(=O)c2c(C)nn(C)c2C)cc1 -6.46%
CCOc1ccc(C(=O)c2cn(CC(=O)Nc3ccc(F)cc3)c3cc4c(cc3c2=O)OCO4)cc1 0.308%
CCCSCCCNC(=O)C1CCCN(c2nn3cc(-c4ccc(OC)cc4)nc3s2)C1 (centres undefined) -3.33%
Cn1c(=O)c(=O)n(C)c2cc(NC(=O)c3cccc(F)c3)c(Cl)cc21 -0.919%
Cc1nn(CC(=O)Nc2ccccc2C(F)(F)F)c(=O)c2cccn12 5.12%
COc1ccc(NC(=O)c2ccc3nc(CCc4ccccc4)oc3c2)c(OC)c1 -8.24%
Cc1ccccc1NC(=O)N1CCc2c(sc3c2CCCC3)C1c1ccccc1 (centres undefined) -2.86%
O=C(Cn1c(=O)oc2cc(Cl)ccc21)Nc1cccc(C(F)(F)F)c1 -0.8%
CCC(=O)Nc1ccc(CC)cc1-c1nc2ccccc2n(CC(=O)Nc2cccc(Cl)c2)c1=O -1.4%
COc1ccc(CCNC(=O)CCCCn2c(=O)c3ccccc3n(Cc3ccccc3C)c2=O)cc1OC 9.65%
COCCNC(=O)CCc1c(C)nc2c(-c3ccc(F)cc3)c(C)nn2c1C -1.23%
CCS(=O)(=O)c1ncc(N(Cc2ccccc2)Cc2ccco2)c(C(=O)Nc2ccc(C)c(C)c2)n1 -0.229%
CCOc1ccc(NC(=O)c2ccc3c(=O)n4nc(Nc5ccccc5C)sc4nc3c2)cc1 2.27%
CCn1c(NCc2ccc(OC)cc2)nc2ccccc21 2.55%
Cc1cc2c(cc1C)NC(CC(=O)Nc1ccccc1)C(=O)N2 (centres undefined) -4.24%
CCN(Cc1ccccc1)C(=O)Cn1cc(S(=O)(=O)Cc2cccc(Cl)c2)c2ccccc21 24.9%
Cc1ccc(O)c(NC(=O)c2ccc(Br)c(S(=O)(=O)N3CCCCC3)c2)c1 -5.43%
Cc1ccccc1CSc1nc2cc(C(=O)NC3CCCC3)ccc2c(=O)n1Cc1ccccc1 -4.89%
CC1CCN(C(=O)CSc2c(C(C)C)cnc3c2c(=O)n(C)c(=O)n3C)CC1 5.51%
COC(=O)CC1Oc2ccccc2-n2cc(-c3ccccc3)nc21 (centres undefined) 5.05%
CCc1ccc(NC(=O)C(=O)NCC(c2cccnc2)N2CCN(Cc3ccccc3)CC2)cc1 (centres undefined) -15.7%
CC(=O)Nc1nonc1-c1nnc(SCC(=O)Nc2ccccc2)n1-c1ccccc1 15.5%
CCCCOc1ccc(CNC(=O)c2ccc(NC(=O)N3CCCCc4ccccc43)cc2)cc1 0.937%
CCC(=O)Nc1ccc2nc(SCCOc3ccccc3)sc2c1 -17.8%
CCOc1ccc(CNS(=O)(=O)c2ccc3[nH]c(=O)ccc3c2)cc1 -4.66%
CCC(=O)N1c2ccccc2CC1C(=O)NCCN1CCN(c2cccc(C(F)(F)F)c2)CC1 (centres undefined) -3.62%
Cc1ccc(C)c(N2CCN(Cc3nnc(-c4ccc5c(c4)OCO5)o3)CC2)c1 8.19%
CNS(=O)(=O)c1cn(CC(=O)Nc2cccc(OC)c2)cc1S(=O)(=O)NC 1.85%
Cc1c(Cl)cccc1NC(=O)c1noc2c1CCCC2 -8.42%
Cc1ccc(NC(=O)CSc2ncn[nH]2)cc1C 8.65%
CCOc1ccccc1NC(=O)CCc1c(C)nn(-c2ccc(N3CCOCC3)nn2)c1C 2.46%
COC(=O)c1ccc(-n2c(CCC(=O)O)ccc2-c2ccc(C)cc2)cc1 -5.02%
Cc1ccc(-n2cc(-c3ccccc3)nc2S(=O)(=O)CC(=O)Nc2ccc(F)cc2)cc1 -12.3%
COc1ccc(-n2nc(C(=O)Nc3ccc(C)cn3)c3c4ccccc4n(C)c3c2=O)cc1 3.5%
CCCCSCCCNC(=O)c1cn(C)c2ccc(S(=O)(=O)N3CCCCC3)cc2c1=O -2.43%
Cc1ccc(N(CC(=O)NCc2ccc(F)cc2)S(=O)(=O)c2c(C)nn(C)c2C)cc1 -13.8%
Cc1ccc(C)c(N2CCN(C(=O)C3CCCN(S(=O)(=O)c4cccc5nsnc45)C3)CC2)c1 (centres undefined) 20.3%
COc1ccc(NC(=O)c2c(-c3ccc(C)cc3)nnc3ccccc23)cc1Cl -0.0584%
COc1ccccc1C(=O)Nc1nnc(SCc2cc(=O)c3cc(Cl)ccc3[nH]2)s1 6.95%

outcome, inactive:
CC(=O)c1cccc(NC(=O)c2nc(-c3ccccc3)n(-c3cccc(Cl)c3)n2)c1
CCOc1ccccc1NC(=O)c1ccc2c(Cl)c3c(nc2c1)CCC3
CCOc1ccccc1CNc1ccc2cc(S(=O)(=O)N3CCC(C)CC3)ccc2n1
COc1ccc(-c2nn3c(=O)cc(CN4CCN(C(=O)c5ccc(OC)c(OC)c5)CC4)nc3s2)cc1
CCCN(CCC)C(=O)Cn1c(=O)n(-c2ccccc2)c(=O)c2c3c(sc21)CCCC3
CCOC(=O)c1ccc(NC(=O)/C(C#N)=C/c2ccc(OC)cc2)cc1
CCOC(=O)c1c(S(=O)(=O)NCC(=O)N2CCN(c3ccccc3)CC2)c(C)n(C)c1C
CCOc1ccccc1CNC(=O)CCCn1ncn2c(cc3occc32)c1=O
Cc1ccc(CCNC(=O)CCn2nc(-c3ccccc3)ccc2=O)cc1
CCCCN(CC)CCNC(=O)CN1C(=O)COc2ccc(S(=O)(=O)N3CCCC3)cc21
O=C(NCCc1ccccc1)c1ccc(Cn2c(SCc3cccc(F)c3)nc3cccnc32)cc1
CCOc1ccc(C(=O)Nc2c(C(=O)c3ccc(OC)cc3)oc3ccccc23)cc1
CCc1ccccc1NC(=O)Cn1c(=O)n(-c2ccc(C)cc2)c(=O)c2c1c1cc(C)ccc1n2C
Cc1nc2ncnn2c(C)c1CCC(=O)N1CCN(c2ccccc2)CC1
CCCCCn1cc2c(c1-c1ccc(Br)cc1)c(=O)n(C)c(=O)n2C
COc1cc(C(CC(=O)Nc2ccc(F)cc2F)N2Cc3ccccc3C2=O)cc(OC)c1OC (centres undefined)
Cc1ccc(-n2nc(CO)c(C(=O)NC(C)CCCc3ccccc3)n2)cc1C (centres undefined)
O=C(CCCn1c(=O)c2cccn2c2ccc(F)cc21)NCc1ccc(Cl)cc1
COc1ccccc1OC(C)C(=O)Nc1c(C(=O)c2ccc(Cl)cc2)oc2ccccc12 (centres undefined)
Cn1c(=O)oc2cc(S(=O)(=O)NC(Cc3ccccc3)C(=O)NCc3ccc(F)cc3)ccc21 (centres undefined)
CCOC(=O)Cn1c(=O)n(CC2CCCO2)c2nc(-c3cccc(C)c3)nc(C(N)=O)c21 (centres undefined)
COc1cccc(CNC(=O)c2ccc3c(c2)nnn3C2CCCC2)c1
CCN(CC)C(=O)Cn1c(=O)n(-c2ccc(OC)cc2OC)c(=O)c2c(C)c(C(=O)N(CC)CC)sc21
COc1ccc(OC)c(NC(=O)Cn2ccc3ccccc3c2=O)c1
